Measurements published in the supplement of paper PMC11369174, “Proteome-scale characterisation of motif-based interactome rewiring by disease mutations” (Molecular Systems Biology, 2024).
Some of the results follow. The data scatter; read single values as rough.

T1: EPHB2_Pkinase__P29323_604_898
T1 chain: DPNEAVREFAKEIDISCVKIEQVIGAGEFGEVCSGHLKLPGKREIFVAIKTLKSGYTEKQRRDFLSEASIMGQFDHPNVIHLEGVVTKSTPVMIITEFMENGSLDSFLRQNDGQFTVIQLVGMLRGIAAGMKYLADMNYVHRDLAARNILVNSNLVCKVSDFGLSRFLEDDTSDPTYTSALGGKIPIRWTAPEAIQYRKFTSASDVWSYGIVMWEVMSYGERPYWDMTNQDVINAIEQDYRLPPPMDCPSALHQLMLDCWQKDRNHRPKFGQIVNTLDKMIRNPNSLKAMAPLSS

T2: EIF_DEAD__P60842_29_237
T2 chain: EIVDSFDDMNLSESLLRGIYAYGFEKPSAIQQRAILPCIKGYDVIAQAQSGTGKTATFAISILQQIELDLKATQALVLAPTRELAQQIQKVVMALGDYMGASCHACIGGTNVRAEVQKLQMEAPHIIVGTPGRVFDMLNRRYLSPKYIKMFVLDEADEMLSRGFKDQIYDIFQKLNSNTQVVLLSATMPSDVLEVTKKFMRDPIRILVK

T3: PEX14_Pex14__O75381_16_84
T3 chain: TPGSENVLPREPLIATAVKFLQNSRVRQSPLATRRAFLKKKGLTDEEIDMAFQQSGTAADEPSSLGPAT

T4: MSN_FERM_1_P26038_1_322
T4 chain: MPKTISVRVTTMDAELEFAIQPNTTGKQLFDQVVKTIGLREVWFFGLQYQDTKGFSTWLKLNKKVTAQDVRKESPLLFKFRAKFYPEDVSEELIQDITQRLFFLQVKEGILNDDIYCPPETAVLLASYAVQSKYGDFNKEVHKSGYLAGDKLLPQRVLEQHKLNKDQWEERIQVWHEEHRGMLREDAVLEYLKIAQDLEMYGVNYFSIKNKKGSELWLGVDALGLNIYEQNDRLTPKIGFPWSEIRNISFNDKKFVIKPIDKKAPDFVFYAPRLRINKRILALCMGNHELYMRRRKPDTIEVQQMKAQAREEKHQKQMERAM

T5: EPHA3_Pkinase__P29320_606_947
T5 chain: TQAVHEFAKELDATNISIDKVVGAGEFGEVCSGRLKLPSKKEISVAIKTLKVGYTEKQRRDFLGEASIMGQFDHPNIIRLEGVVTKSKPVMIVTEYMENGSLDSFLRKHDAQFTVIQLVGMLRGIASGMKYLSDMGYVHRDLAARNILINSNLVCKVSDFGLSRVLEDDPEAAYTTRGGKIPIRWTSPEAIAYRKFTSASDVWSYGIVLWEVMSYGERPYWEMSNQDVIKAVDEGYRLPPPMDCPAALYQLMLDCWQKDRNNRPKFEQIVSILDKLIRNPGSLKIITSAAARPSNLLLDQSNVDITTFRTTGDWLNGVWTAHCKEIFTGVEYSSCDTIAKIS

T6: G3BP2_NTF2_1_Q9UN86_1_139
T6 chain: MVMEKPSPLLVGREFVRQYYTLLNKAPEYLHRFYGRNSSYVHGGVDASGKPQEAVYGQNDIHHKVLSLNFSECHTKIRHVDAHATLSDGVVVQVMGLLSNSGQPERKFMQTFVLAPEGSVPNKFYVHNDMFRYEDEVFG

T7: SPOP_MATH__O43791_19_176
T7 chain: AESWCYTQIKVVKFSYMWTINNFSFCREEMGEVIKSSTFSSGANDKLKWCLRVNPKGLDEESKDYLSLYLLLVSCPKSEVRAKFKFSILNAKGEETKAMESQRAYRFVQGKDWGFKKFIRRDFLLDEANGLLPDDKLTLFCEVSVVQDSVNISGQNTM


biological target: EIF4E_eIF4E__P06730_1_217, P06730; assay: mutation enrichment score (mutant vs wild-type peptide binding to bait); baits are purified protein domains named by gene / domain / UniProt id / residues; peptides come from disordered regions of human proteins; higher = mutation enhances binding relative to wild type; conditions: number of wild-type / mutant comparisons summed (bounds the score): 12; paper call: no_effect; wild-type window: …
Sequence (P06730 whole entry, the tested form may be a part): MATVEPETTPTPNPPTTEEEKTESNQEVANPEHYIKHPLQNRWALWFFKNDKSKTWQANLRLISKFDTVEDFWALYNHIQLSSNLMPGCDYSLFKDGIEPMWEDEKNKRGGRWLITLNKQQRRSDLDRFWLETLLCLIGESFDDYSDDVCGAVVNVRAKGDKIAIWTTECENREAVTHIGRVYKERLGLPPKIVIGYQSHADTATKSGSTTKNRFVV

Binder | mutation enrichment score
SREHPSVQEKKKSTIWQFFSCLFSSSSSPPPAKRPYPSVNI [R578C R578C] | 3

Biological target: T1, EPHB2_Pkinase__P29323_604_898
Assay: as above
Conditions: number of wild-type / mutant comparisons summed (bounds the score): 6; paper call: no_effect; wild-type window: …

Binder | mutation enrichment score
SREHPSVQEKKKSTIWQFFSCLFSSSSSPPPAKRPYPSVNI [R578C R578C] | 2
YLAEKGENDHFDTYADALWWRLITLTTIGYGDKYPQTWNGR [G271R G271R] | -1
YRQVFERHYPGRADWLSHYWIPKWINATDPSARTLTHYKSA [M538I M538I] | -1.5
HIAEDADRKYEEVARKLVIIDSDLERAEERAELSEGKCAEL [E173D E173D] | 3
PHALYSHKPEVAQYTHTGLLLQTMLITDTTNLSALASLTPT [P519L P519L] | 3

Biological target: T2, EIF_DEAD__P60842_29_237
Assay: as above
Conditions: number of wild-type / mutant comparisons summed (bounds the score): 6; paper call: no_effect; wild-type window: …

Binder | mutation enrichment score
ADQRQYEEWLFHTQQLLQMQPKVLEEQIGVHRKSRKALCAK [L3525P L3525P] | 4
DVPEVDAQGEEMKEEFETYAYALWWGLITLATIGYGDKTPK [D305Y D305Y] | 1
KVKLEQQVDDLEGSLEQEKKARMDLERAKRKLEGDLKLTQE [V1044A V1044A] | 1
ALMDSSSSLSRNPPSYIAPYGCILRYAVSAALWLAIGIIQV [S728G S728G] | 1
TSGLPGDTALLLPPSPRPSPGVHLPTQPAADTYSEFHKHYA [R342G R342G] | -2
AGGAAPGRGAAGRARCLGPSVRGPG [A128V A128V] | 1

biological target: Intersectin-1_SH3_2_Q15811_913_971; assay: as above; conditions: number of wild-type / mutant comparisons summed (bounds the score): 6; paper call: no_effect; wild-type window: …

Binder | mutation enrichment score
DVPEVDAQGEEMKEEFETYAYALWWGLITLATIGYGDKTPK [D305Y D305Y] | 0

biological target: NEDD4_WW_2_P46934_765_803; assay: as above; conditions: number of wild-type / mutant comparisons summed (bounds the score): 6; paper call: no_effect; wild-type window: …
Sequence (chain, as listed by the source): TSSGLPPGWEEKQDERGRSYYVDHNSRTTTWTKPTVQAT

Binder | mutation enrichment score
ALMDSSSSLSRNPPSYIAPYGCILRYAVSAALWLAIGIIQV [S728G S728G] | 4

Biological target: T2, EIF_DEAD__P60842_29_237
Assay: as above
Conditions: number of wild-type / mutant comparisons summed (bounds the score): 12; paper call: no_effect; wild-type window: …

Binder | mutation enrichment score
SDDETEDELDDQGSAVEPEQTRVNREAEENREPFRKECTWQ [N45T N45T] | -2
GPGPGSPQRRAQQRAAPGEPDWMGRLWVTFSGKLRRIVDSK [G773D G773D] | 0.47
STQSLPTVDTSAQAAPQTYAKYAISQPLEGAGATCPTGSEP [E62K E62K] | 0
MLKPSLPFTSLLFLQLPLLGPGLNTTILTPNGNEDT [L16P L16P] | 0
LCDFGISGQLVDSIAKTRDACCRPYMAPERIDPSASRQGYD [G265C G265C] | -2
FRAGDMLNLALKEQQPKVRGGLLASLDGQTTGLIPANYVKI [W313G W313G] | -2

Biological target: T3, PEX14_Pex14__O75381_16_84
Assay: as above
Conditions: number of wild-type / mutant comparisons summed (bounds the score): 18; paper call: enhanced; wild-type window: …

Binder | mutation enrichment score
GPGPGSPQRRAQQRAAPGEPDWMGRLWVTFSGKLRRIVDSK [G773D G773D] | 12

biological target: EZR_FERM_1_P15311_2_295; assay: as above; conditions: number of wild-type / mutant comparisons summed (bounds the score): 10; paper call: no_effect; wild-type window: …
Sequence (chain, as listed by the source): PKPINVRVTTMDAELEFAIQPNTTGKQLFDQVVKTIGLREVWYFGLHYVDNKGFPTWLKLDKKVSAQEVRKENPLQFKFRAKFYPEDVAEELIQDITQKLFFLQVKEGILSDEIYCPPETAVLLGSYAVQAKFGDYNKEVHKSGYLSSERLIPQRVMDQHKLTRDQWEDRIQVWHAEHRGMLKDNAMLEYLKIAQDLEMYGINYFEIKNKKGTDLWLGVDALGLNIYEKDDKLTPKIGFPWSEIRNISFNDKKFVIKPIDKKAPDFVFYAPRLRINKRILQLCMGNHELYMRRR

Binder | mutation enrichment score
STQSLPTVDTSAQAAPQTYAKYAISQPLEGAGATCPTGSEP [E62K E62K] | -5

Biological target: T4, MSN_FERM_1_P26038_1_322
Assay: as above
Conditions: number of wild-type / mutant comparisons summed (bounds the score): 12; paper call: no_effect; wild-type window: …

Binder | mutation enrichment score
STQSLPTVDTSAQAAPQTYAKYAISQPLEGAGATCPTGSEP [E62K E62K] | -3

biological target: PPIA_full-length__P62937_1_165, P62937; assay: as above; conditions: number of wild-type / mutant comparisons summed (bounds the score): 12; paper call: diminished; wild-type window: …
Sequence (P62937 whole entry, looked up): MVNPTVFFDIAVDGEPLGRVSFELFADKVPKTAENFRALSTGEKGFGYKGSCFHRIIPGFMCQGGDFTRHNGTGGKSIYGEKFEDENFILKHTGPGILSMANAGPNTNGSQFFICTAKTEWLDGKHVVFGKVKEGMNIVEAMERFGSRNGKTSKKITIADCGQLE

Binder | mutation enrichment score
STQSLPTVDTSAQAAPQTYAKYAISQPLEGAGATCPTGSEP [E62K E62K] | -7

Biological target: T5, EPHA3_Pkinase__P29320_606_947
Assay: as above
Conditions: number of wild-type / mutant comparisons summed (bounds the score): 6; paper call: no_effect; wild-type window: …

Binder | mutation enrichment score
YLAEKGENDHFDTYADALWWRLITLTTIGYGDKYPQTWNGR [G271R G271R] | 2
YRQVFERHYPGRADWLSHYWIPKWINATDPSARTLTHYKSA [M538I M538I] | -3.3
HIAEDADRKYEEVARKLVIIDSDLERAEERAELSEGKCAEL [E173D E173D] | 2
PHALYSHKPEVAQYTHTGLLLQTMLITDTTNLSALASLTPT [P519L P519L] | 2
LLASLIRGNRSNCALFSTNLYWLVSKLDRLEASSGILEVLY [D544Y D544Y] | 1
PVGEFLLAGGRTKTWLVGNKPVTVTTSVGTGTRSLLGLDSG [L1066P L1066P] | 1
KSLRQRRAQASYAGPPPTVAKLVEAHTNFGFQPDTAPRSPN [E580K E580K] | 1.1

biological target: REPS1___Q96D71_226_314; assay: as above; conditions: number of wild-type / mutant comparisons summed (bounds the score): 6; paper call: no_effect; wild-type window: …

Binder | mutation enrichment score
YRQVFERHYPGRADWLSHYWIPKWINATDPSARTLTHYKSA [M538I M538I] | -2

Biological target: T6, G3BP2_NTF2_1_Q9UN86_1_139
Assay: as above
Conditions: number of wild-type / mutant comparisons summed (bounds the score): 12; paper call: no_effect; wild-type window: …

Binder | mutation enrichment score
LLASLIRGNRSNCALFSTNLYWLVSKLDRLEASSGILEVLY [D544Y D544Y] | 0

Biological target: T7, SPOP_MATH__O43791_19_176
Assay: as above
Conditions: number of wild-type / mutant comparisons summed (bounds the score): 6; paper call: no_effect; wild-type window: …

Binder | mutation enrichment score
KSLRQRRAQASYAGPPPTVAKLVEAHTNFGFQPDTAPRSPN [E580K E580K] | -3.7
